Assay [1] has as its target PRDM16 (endogenous, mouse) (mouse (endogenous in SVF-derived beige adipocytes, scWAT, BAT)) (UniProt A2A935). As to the kind of experiment: co-IP; endogenous proteins in SVF-derived beige adipocytes; lysate with primary antibody overnight at 4 °C, Protein G beads 3 h at 4 °C; immunoblot; for PRDM16 with C/EBPβ cells treated with Veh, NE, FSK or NE + H89 for 30 min.
For assay [2], the target named is PRDM16 (overexpressed in HEK-293T cells) (UniProt A2A935). Nature of the assay: co-IP; both proteins overexpressed in HEK-293T cells; lysis buffer 120 mM NaCl, 50 mM Tris-HCl pH 8.0, 10% glycerol, 1% NP-40, 5 mM EDTA; HA-tagged protein on anti-HA magnetic beads, 2 h at 4 °C; immunoblot.
The target in assay [3] is PRDM16 5th fragment (F5, amino acid 880-1038), zinc finger-2 domain (UniProt A2A935). The description is as above.
In a further assay the target is PRDM16(ΔF5) (UniProt A2A935). The assay is described as above.
Assay [4] addresses PRDM16 (overexpressed in HEK-293T cells) (UniProt A2A935). Nature of the assay: co-IP; C/EBPβ and PRDM16 overexpressed in HEK-293T cells without or with co-expressed YAP, TAZ or their mutants (S79A, S51A, 5SA, 4SA); immunoblot.
For assay [5] the target is unchanged. Nature of the assay: co-IP; overexpressed PRDM16 and endogenous YAP/TAZ in HEK-293T cells; immunoblot.

Protein sequences, listed by entry. Tags and fused reporters are not part of them. Lines headed by an entry give the natural chain unless they say otherwise; changes in a name come on top. Chains listed by the source or under a name are the forms on record and can include a tag or linker. Residues count along the entry.
UniProt A2A935: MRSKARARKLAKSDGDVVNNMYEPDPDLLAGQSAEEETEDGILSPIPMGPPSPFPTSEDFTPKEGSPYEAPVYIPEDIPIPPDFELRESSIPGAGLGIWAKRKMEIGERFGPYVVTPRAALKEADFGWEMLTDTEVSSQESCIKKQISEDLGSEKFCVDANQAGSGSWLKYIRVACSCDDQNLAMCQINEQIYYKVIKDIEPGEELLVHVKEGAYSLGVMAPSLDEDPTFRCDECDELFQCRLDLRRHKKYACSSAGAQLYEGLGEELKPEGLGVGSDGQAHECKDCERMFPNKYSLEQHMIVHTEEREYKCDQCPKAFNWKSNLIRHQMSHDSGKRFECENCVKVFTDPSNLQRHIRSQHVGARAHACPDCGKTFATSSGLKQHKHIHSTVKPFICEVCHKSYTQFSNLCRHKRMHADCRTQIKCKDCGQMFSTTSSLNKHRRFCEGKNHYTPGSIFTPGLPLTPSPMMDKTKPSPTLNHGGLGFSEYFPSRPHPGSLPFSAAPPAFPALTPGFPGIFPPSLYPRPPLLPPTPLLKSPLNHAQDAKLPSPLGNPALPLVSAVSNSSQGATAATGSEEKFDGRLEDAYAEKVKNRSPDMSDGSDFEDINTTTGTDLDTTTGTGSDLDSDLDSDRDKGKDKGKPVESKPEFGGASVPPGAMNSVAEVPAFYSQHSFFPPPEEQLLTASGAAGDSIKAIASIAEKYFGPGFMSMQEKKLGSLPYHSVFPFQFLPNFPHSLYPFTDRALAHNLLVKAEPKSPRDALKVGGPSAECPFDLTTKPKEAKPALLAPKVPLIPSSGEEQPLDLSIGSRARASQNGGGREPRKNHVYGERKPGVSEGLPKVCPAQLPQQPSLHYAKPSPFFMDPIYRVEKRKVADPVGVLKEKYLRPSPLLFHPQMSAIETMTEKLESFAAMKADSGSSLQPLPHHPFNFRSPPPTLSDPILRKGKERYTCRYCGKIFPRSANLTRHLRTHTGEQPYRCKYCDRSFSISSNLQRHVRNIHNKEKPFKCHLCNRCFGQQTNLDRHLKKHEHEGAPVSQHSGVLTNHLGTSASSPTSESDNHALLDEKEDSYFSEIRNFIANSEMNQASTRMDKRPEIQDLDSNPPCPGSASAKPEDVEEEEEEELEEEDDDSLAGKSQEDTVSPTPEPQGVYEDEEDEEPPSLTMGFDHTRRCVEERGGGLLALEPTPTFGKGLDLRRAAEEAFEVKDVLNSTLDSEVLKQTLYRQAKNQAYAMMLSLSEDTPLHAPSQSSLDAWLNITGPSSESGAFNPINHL
PRDM16 5th fragment (F5, amino acid 880-1038), zinc finger-2 domain: residues 880-1038 of A2A935
PRDM16(ΔF5) (A2A935, form named): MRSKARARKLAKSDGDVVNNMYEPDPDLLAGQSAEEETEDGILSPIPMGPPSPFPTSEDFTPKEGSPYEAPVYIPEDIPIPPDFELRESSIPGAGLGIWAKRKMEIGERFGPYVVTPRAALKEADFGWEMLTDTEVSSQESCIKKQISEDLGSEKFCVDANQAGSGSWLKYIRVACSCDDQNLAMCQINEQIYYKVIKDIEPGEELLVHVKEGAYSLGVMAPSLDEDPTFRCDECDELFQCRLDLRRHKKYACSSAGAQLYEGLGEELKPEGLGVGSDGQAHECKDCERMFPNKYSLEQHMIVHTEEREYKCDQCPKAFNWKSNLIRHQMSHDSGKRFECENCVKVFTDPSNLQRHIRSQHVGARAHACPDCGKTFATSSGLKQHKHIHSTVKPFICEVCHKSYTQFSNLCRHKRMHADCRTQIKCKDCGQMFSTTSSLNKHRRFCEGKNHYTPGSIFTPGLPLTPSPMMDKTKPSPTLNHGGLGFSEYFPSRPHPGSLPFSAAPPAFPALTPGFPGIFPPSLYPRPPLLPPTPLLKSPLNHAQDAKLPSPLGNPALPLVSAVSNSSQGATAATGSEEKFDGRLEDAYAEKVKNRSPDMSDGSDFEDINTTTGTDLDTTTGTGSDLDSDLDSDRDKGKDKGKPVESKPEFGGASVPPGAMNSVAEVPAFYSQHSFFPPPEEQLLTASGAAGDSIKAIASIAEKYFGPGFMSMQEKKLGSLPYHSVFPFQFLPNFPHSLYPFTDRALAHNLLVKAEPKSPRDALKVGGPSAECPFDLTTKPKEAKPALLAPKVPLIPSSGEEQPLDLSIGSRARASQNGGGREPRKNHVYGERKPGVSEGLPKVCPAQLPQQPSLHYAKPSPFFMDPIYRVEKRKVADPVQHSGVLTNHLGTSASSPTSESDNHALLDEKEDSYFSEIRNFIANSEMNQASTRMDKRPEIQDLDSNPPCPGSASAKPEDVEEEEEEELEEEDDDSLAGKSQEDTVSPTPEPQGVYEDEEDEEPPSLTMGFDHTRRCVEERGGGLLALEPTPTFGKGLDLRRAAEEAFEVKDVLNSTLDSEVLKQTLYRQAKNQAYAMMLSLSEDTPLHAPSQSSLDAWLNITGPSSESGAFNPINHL
UniProt Q9EPK5: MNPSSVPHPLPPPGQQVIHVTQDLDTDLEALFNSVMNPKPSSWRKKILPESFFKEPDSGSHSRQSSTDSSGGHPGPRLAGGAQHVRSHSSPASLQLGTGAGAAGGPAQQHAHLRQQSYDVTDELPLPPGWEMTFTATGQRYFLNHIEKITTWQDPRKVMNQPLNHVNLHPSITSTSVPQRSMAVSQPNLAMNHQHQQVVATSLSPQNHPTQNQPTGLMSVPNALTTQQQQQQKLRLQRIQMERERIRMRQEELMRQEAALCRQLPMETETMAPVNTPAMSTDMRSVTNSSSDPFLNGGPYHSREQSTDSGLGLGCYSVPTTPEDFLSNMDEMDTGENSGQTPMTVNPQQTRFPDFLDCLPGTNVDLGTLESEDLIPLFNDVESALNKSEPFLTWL
UniProt Q9GZV5: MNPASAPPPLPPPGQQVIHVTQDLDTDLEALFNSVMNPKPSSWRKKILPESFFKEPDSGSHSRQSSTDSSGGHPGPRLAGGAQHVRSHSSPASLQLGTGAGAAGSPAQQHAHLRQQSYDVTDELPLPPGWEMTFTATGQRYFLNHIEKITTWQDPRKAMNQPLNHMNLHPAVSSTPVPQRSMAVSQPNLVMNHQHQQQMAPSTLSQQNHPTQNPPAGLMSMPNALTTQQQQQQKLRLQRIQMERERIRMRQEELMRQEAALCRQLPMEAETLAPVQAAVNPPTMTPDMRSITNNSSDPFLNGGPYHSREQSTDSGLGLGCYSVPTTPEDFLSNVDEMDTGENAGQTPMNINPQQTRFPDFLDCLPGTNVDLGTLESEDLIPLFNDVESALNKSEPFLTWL
UniProt P46937: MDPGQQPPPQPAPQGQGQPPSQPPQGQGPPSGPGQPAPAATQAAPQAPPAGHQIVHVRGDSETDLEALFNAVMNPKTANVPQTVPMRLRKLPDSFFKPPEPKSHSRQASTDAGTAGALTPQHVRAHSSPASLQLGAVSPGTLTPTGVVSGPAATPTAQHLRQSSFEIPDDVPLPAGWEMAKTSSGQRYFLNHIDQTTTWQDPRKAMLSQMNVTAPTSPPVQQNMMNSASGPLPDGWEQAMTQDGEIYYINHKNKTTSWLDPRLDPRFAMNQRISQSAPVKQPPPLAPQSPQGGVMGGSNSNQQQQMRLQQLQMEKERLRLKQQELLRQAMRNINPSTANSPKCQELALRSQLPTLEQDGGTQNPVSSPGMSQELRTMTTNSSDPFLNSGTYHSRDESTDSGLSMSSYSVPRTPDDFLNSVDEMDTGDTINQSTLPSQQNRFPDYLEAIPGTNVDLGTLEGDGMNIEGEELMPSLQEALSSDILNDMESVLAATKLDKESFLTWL

These are yes or no findings as the source states them, for the method shown. In cells and extracts the contact can be indirect. Some results given as binding are weak or reduced against the parent protein; the word gives no strength.

With “YAP (endogenous, mouse) (from UniProt P46938 1-488)”, in assay [1], the binding result is on record as “binds”.

For “TAZ (overexpressed in HEK-293T cells) (from UniProt Q9EPK5 1-395)”, the binding result was “binds” in assay [2], “binds” in assay [3] and “no binding” in the assay with PRDM16(ΔF5).

On to “TAZ (endogenous, mouse) (from UniProt Q9EPK5 1-395)”, for which the binding entry in assay [1] is “binds”.

Consider YAP (S79A) (from UniProt P46938 1-488), for which the binding entry in assay [4] is given as “binds”.

In the case of TAZ (S51A) (from UniProt Q9EPK5 1-395), in assay [4], the binding result is given as “binds”.

For the substance “TAZ (endogenous in HEK-293T cells) (from UniProt Q9GZV5 1-400)”, in assay [5], the binding result is listed as “binds”.

“YAP (endogenous in HEK-293T cells) (from UniProt P46937 1-504)”: the binding result in assay [5] is reported as “binds”.

Consider “YAP (overexpressed in HEK-293T cells) (from UniProt P46938 1-488)”, for which the binding result in assay [2] is “binds”; in assay [3], “binds”; in the assay with PRDM16(ΔF5), “no binding”.

Values taken from article PMC10625615.
